Among all 310,000 compounds or so, about 2,200 (0.71%) showed an effect of 50% or more. Effects have a minus sign here. The list shows a part of the results.
Biological target: human ether-à-go-go-related gene (hERG) potassium channel (human, UniProt Q12809)
Assay: primary screen, population patch clamp on CHO cells stably expressing hERG

human ether-à-go-go-related gene (hERG) potassium channel, sequence (Q12809 whole entry, looked up): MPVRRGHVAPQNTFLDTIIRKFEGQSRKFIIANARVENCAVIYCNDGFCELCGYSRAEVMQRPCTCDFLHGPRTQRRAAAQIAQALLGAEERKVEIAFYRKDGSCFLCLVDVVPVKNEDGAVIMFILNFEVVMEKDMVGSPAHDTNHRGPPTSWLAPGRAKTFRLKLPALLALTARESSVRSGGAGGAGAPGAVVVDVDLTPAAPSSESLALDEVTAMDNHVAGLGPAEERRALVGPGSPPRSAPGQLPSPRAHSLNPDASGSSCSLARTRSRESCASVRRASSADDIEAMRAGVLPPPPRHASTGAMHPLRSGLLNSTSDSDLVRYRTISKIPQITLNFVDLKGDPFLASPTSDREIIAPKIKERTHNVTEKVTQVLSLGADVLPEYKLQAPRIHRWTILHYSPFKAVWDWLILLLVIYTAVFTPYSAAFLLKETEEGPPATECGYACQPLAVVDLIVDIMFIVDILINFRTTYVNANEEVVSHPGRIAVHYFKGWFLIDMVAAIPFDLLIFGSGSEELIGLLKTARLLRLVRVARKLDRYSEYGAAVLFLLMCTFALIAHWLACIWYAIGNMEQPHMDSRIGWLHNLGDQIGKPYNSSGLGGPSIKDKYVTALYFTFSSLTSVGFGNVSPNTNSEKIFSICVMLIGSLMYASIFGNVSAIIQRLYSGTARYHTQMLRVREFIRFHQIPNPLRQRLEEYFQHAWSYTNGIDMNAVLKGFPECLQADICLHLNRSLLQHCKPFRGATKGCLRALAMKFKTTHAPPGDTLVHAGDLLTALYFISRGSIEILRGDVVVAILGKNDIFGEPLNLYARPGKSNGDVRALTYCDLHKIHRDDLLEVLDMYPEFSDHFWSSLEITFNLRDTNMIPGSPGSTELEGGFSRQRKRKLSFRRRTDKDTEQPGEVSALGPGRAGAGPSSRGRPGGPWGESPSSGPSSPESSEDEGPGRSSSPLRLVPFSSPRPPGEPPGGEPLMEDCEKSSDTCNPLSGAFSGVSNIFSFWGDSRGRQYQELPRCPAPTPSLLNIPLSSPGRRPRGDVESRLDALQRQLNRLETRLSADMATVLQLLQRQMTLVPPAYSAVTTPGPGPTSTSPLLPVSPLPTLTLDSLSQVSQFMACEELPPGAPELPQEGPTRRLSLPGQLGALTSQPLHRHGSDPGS

SMILES | hERG current change (%, negative = inhibition) at 1uM
CNC(=O)NC(=O)COC(=O)c1ccccc1OCc1ccccc1 | 10.1%
CCCCN(CCCC)C(=S)N/N=C/c1c(C)[nH]n(-c2ccccc2)c1=O | 15.8%
Cc1cnc(=O)[nH]c1SCc1ccccc1F | 15%
O=C(NC1CCN(C(=O)Nc2cccc(Cl)c2)CC1)C1CCCCC1 | 0.0523%
CCC(C)(C)NC(=O)CN(C(=O)c1csnn1)c1ccccc1-c1ccccc1 | 11.1%
CC[C@@]1(O)C(=O)OCc2c1cc1n(c2=O)Cc2cc3ccccc3nc2-1 | 7.44%
CCOc1ccc(S(=O)(=O)Nc2ccccc2C(=O)N(C)C2CCN(C)CC2)cc1 | 18.5%
CC(C)(C)c1nnc2sc(SCCN3C(=O)c4ccccc4C3=O)nn2c1=O | -2.56%
Cc1ccn2cc(CNS(=O)(=O)c3ccc4c(c3)OCCO4)nc2c1 | 4.12%
Cn1c(CSc2ncccn2)nnc1SCC(=O)N1CCCCCC1 | 25.4%
CC(CN1C(C)CCCC1C)OC(=O)c1ccc(Cl)cc1 (stereo not drawn) | -10.8%
CCOc1cc(/C=N/NC(=O)c2cccs2)ccc1OC(=O)N1CCOCC1 | 16.1%
CC(/C=C/c1ccc2c(c1)OCO2)=N/NC(=O)c1ccncc1 | -1.24%
O=C(Nc1ccc2c(c1)OCO2)c1ccc(=O)[nH]n1 | 6.05%
CCOC(=O)c1[nH]c2ccc(OC)cc2c1NC(=O)CCN1CCSCC1 | 3.32%
CCc1nnc(NC(=O)CSc2nnc(CSc3nc(C)cc(C)n3)n2C)s1 | 12.1%
Cc1nn2c(C)c(C(=O)Nc3ccccc3)cnc2c1C#N | 14%
O=C(NCc1ccccn1)c1c(O)c2c([nH]c1=O)CCCC2 | 11.5%
COc1ccc(C(=O)C2CCN(C(=O)c3ccc(C)cc3)CC2)cc1 | -47.7%
COC(=O)c1ccc(NCC(=O)Nc2cc(C)cc(C)c2)cc1 | 5.25%
CCCc1cc(=O)[nH]c(SCCOC(=O)c2ccccc2)n1 | -2.71%
Cc1nonc1NC(=O)CSc1nc2ccccc2o1 | 6.1%

SMILES | hERG current change (%, negative = inhibition) at 1uM
O=C(COc1cccnc1[N+](=O)[O-])Nc1cc(S(=O)(=O)N2CCCCC2)ccc1Cl | 10.1%
CC(C)(C)OC(=O)N1CCC(CC2CC(c3ccc(Cl)cc3)=NO2)(C(=O)NCC2CCCCC2)CC1 (stereo not drawn) | -0.26%
CCCCn1c(N)c(N(CCC(C)C)C(=O)c2ccc(N3CCCC3=O)cc2)c(=O)[nH]c1=O | 12.4%
COc1ccc(Br)cc1C1CC(=O)N2CN(C)CSC2=C1C#N (stereo not drawn) | 15.7%
COc1ccc(C(=O)N2CCN(c3nc4ccccc4o3)CC2)cc1OC | -6.13%
COC(=O)c1scc(C)c1NC(=O)CC1NCCNC1=O (stereo not drawn) | 11.9%
CCCN(CCC)C(=O)c1cc(-c2ccc3c(c2)OCO3)nc2ccccc12 | -2.07%
Cc1cccc(C(=O)N(Cc2ccco2)c2c(N)n(Cc3ccccc3)c(=O)[nH]c2=O)c1 | 2.39%
O=C(c1cc2ccccc2cc1O)N1CCN(c2ccccn2)CC1 | 3.7%
Cc1cc(OCC(=O)NNC(=O)c2ccncc2)ccc1C(C)C | 1.1%
NC(=O)c1ccccc1NC(=O)Cc1cccs1 | 14.8%
Cc1cc(NC(=O)c2ccc(C)s2)n(-c2nc3ccccc3[nH]2)n1 | 6.82%
Cc1c(NC(=O)C2CC(c3c(F)cccc3Cl)=NO2)c(=O)n(-c2ccccc2)n1C (stereo not drawn) | 20.4%
O=C1CCCC(=O)C1Sc1ccc(Cl)cc1 | 15.6%
O=C(Nc1nc(-c2ccccn2)cs1)C1COc2ccccc2O1 (stereo not drawn) | 9.5%
CC[C@H](C)Cc1cn([C@@H](CCCN=C(NC(=O)OC(C)(C)C)NC(=O)OC(C)(C)C)C(=O)NCCCCCCCCCCC(=O)N2CCN(C(=O)OC(C)(C)C)CC2)nn1 | 7.66%
Cc1cc(C)n(-c2c(C)[nH]c3ccccc23)n1 | 11.1%
COC(=O)CCC(=O)OC1(C)C(=O)C2=CN(CCc3c[nH]c4ccccc34)C(c3ccc(OC)cc3)=CC2=C(Br)C1=O (stereo not drawn) | 8.64%
COc1ccc(N(C(=O)CNC(=O)c2ccco2)C(C(=O)NC2CCCC2)c2ccco2)cc1 (stereo not drawn) | 12.3%
Cc1nonc1NC(=O)c1ccccc1Br | 11.3%
NC(=O)C1CCN(c2ccnc3cc(Cl)ccc23)CC1 | -4.7%
O=C1N=c2ccc(Br)cc2=C1c1sc(=O)[nH]c1O | 17.2%

SMILES | hERG current change (%, negative = inhibition) at 1uM
Cc1cccc(Nc2cnn(C34CC5CC(CC(CC(=O)O)(C5)C3)C4)c(=O)c2Cl)c1 | 6.75%
COc1ccc(S(=O)(=O)N(C)C)cc1NC(=O)c1ccc(OCC(=O)N2CCOCC2)c(OC)c1 | -0.106%
CC1CCN(C(=O)COC(=O)Cn2cnc3c2c(=O)n(C)c(=O)n3C)CC1 | 17.6%
COc1ccc(Br)c(C(=O)N(C)CC(=O)Nc2ccc(N3CCOCC3)cc2)c1 | -6.73%
NS(=O)(=O)c1ccc(NC(=O)CSc2nc3ccccc3n2-c2ccccc2)cc1 | 16.8%
CN(CC(=O)Nc1ccc(F)cc1)CC(=O)N1CCCC1 | 7.78%
O=C(CSc1ccccn1)Nc1nc2ccc(Br)cc2s1 | 7.09%
CCOC(=O)CSc1nc2c(sc(=S)n2-c2ccc(CC)cc2)c(=O)[nH]1 | 12.1%
O=C(c1n[nH]c(=O)c2ccccc12)N1CCN(Cc2ccc3c(c2)OCO3)CC1 | 3.53%
CC(=O)N1CCN(S(=O)(=O)c2cccc(C(=O)OCC(=O)NC(=O)c3cccn3C)c2)CC1 | 5.26%
O=C(NCCc1nc2ccccc2[nH]1)c1cccc(Br)c1 | -5.27%
O=C(COC(=O)c1cccs1)NCc1ccc2c(c1)OCO2 | -2.63%
CCCC(=O)N1c2ccccc2C(=C2SC(C(=O)OC)=C(C(=O)OC)S2)C(=S)C1(C)C | 0.445%
O=C(N/N=C\C=C\c1ccco1)c1cncc(Br)c1 | 25.1%
COC(=O)c1cc(C(=O)OCC(=O)N(C)C2CCS(=O)(=O)C2)cc([N+](=O)[O-])c1 (stereo not drawn) | 0.39%
COc1ccc2cc(C3CC(c4cccs4)=NN3S(C)(=O)=O)c(Cl)nc2c1 (stereo not drawn) | 1.82%
CCc1nnc(NC(=O)CSc2nnc(CNc3ccc(C)cc3)n2C)s1 | 9.92%
CCCn1c(C(O)c2ccc(OC)c(OC)c2)nc2ccccc21 (stereo not drawn) | 12.4%
O=c1[nH]nc(SCCS(=O)(=O)c2ccc(F)cc2)n1-c1ccccc1 | 6.77%
Cc1c(CN(C)C(=O)c2sc3cc(Cl)ccc3c2Cl)cnn1C | -18.3%
Cc1nnc(SC(C)C(=O)Nc2nccs2)s1 (stereo not drawn) | 21.7%
Cc1ccccc1OCCN1C(=O)NC2(CCCc3ccccc32)C1=O (stereo not drawn) | -4.06%

SMILES | hERG current change (%, negative = inhibition) at 1uM
Cc1cc(OCC(=O)O)c2c3c(c(=O)oc2c1)CCCC3 | 15.1%
N#Cc1ccc(NC(=O)c2nc(-c3ccccc3)n(-c3ccccc3)n2)cc1 | -15.4%
O=C(Nc1cccc(S(=O)(=O)NC2=NCCC2)c1)c1cc(-c2ccco2)nc2ccccc12 | 13.8%
COc1ccccc1N(C(C)=O)C1SC(=O)N(c2ccccc2)C1=O (stereo not drawn) | 21.3%
COc1ccc(CN2c3cc(S(=O)(=O)N4CCOCC4)ccc3N3CCCC32)cc1 (stereo not drawn) | -2.41%
O=C(Nc1ccc(N2CCCC2)cc1)c1cccc(F)c1 | 2.14%
CCn1c(CNC(=O)c2ccco2)nnc1SCC(=O)Nc1cc(F)ccc1C | 9.23%
COc1ccc2nc(-n3c(O)c(C4=c5ccccc5=NC4=O)[nH]c3=S)sc2c1 | 11.4%
O=C(O)COc1ccc(/C=C2/SC(=S)N(Cc3ccccc3)C2=O)cc1 | 14.9%
CC1=NN(c2ccc([N+](=O)[O-])cc2)C(=O)/C1=C\N(C)C | 5.09%
Cc1ccc(SSc2cc(C)ccc2N)c(N)c1 | 5.57%
Cc1c(/C=N/NC(N)=O)c2ccccn2c1C(=O)c1ccc(F)cc1 | 4.11%
Cc1cc(C)n2c(SCCO)nnc2n1 | 15.2%
O=[N+]([O-])c1ccc(Nc2nc(N/N=C\c3ccc4c(c3)OCO4)nc(N3CCCCC3)n2)cc1 | 8.42%
CC1C(=O)N2CCCc3cc(NS(=O)(=O)c4ccccc4)cc1c32 (stereo not drawn) | 10.8%
COc1ccc(C(CNC(=O)Nc2ccccc2)N2CCN(C)CC2)cc1 (stereo not drawn) | -0.81%
CCNC(=O)c1ccccc1SCC(=O)Nc1ccc(F)cc1 | 2.1%
COc1ccc(C(C(=O)NC2CCCC2)N(CCO)C(=O)Cn2nnc(-c3ccc(C)o3)n2)cc1 (stereo not drawn) | 13.2%
CCOc1nc(N2CCOCC2)nc(N2CCOCC2)n1 | 23%
COc1ccccc1N1CCN(C(=O)CSc2nc3ccccc3c(=O)n2CC2CCCO2)CC1 (stereo not drawn) | -16%
COc1ccc(N2C(=O)CCC2=O)c(OC)c1 | 8.08%
